# According to the supplement of paper PMC8728848:
# The other results are listed elsewhere or left out.
# B1: PX9937A-bvu-521-23-521 (Bacteroides vulgatus) (protein)
# chain: LDLAPEDYYGAGNFWKEASQPKAFMLGLHAQLRSYYDMFYTLGELRGGTQRVGTSSLNTSLNYADIRSQNISEDIPGISNWNGLYSPIMQVNHFIQEVENGCTFLDDATRSRYLGQAYGMRALYYFMLYRTFGGVPLITKVDILDGKPSADKFYVERATPEATMEFIKADINKSENYFGNNTSFDAYDWSRYATLMLKAEIYMWAAKVSITGFTATGATDLQTAKTALSGIIGHFELMDNFASIFSCDNKKNTEIIFAMPFIEGEASNDGGRFLYQDAVFLGQAYGRNGKVIEKDTLNLKGTGGVFRDEYTEDFWKTFKEGDSRRDATFMEYYMKNDNGTLSEFGCVMKKRIGTINSNDNRIYISDIPVYRYADALLMMAEIENGLNNPCASYINEVRKRAYGDTFEENKYTEGSYAENELAILQERDKEFVSEGKRWFDVLRMHDASGRSLVFSANANYPGTNPILGTEEAYKMLWPVNIGTLNVNPLLTQTPGYGKK
# Assays:
# Experiment in all cases: glycan array binding signal (z-score within array); higher = stronger binding
# Conditions in all cases: glycan notation: IUPAC condensed, linker removed
# Fuc(a1-3)GlcNAc = target: Fuc(a1-3)GlcNAc
# Method in brief: (§1)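 The Consortium for Functional Glycomics database supplied 3228 glycan arrays, of which those lacking an available protein sequence were dropped. The binding signal, a within-array Z-score, was averaged across arrays of the same protein sequence and across linkers. Negative scores can be read as non-binding.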
# [1] = target: Fuc(a1-3)[Gal(b1-4)]Glc6S
# Method in brief: as §1
# [2] = target: Fuc(a1-3)[Gal(b1-4)]GlcNAc
# Method in brief: as §1
# [3] = target: Fuc(a1-3)[Gal(b1-4)]GlcNAc(b1-2)Man
# Method in brief: as §1
# [4] = target: Fuc(a1-3)[Gal(b1-4)]GlcNAc(b1-2)Man(a1-3)[Fuc(a1-3)[Gal(b1-4)]GlcNAc(b1-2)Man(a1-6)]Man(b1-4)GlcNAc(b1-4)GlcNAc
# Method in brief: as §1
# [5] = target: Fuc(a1-3)[Gal(b1-4)]GlcNAc(b1-2)Man(a1-3)[Fuc(a1-3)[Gal(b1-4)]GlcNAc(b1-2)Man(a1-6)]Man(b1-4)GlcNAc(b1-4)[Fuc(a1-6)]GlcNAc
# Method in brief: as §1
# [6] = target: Fuc(a1-3)[Gal(b1-4)]GlcNAc(b1-3)Gal(b1-3)[Fuc(a1-4)]GlcNAc
# Method in brief: as §1
# [7] = target: Fuc(a1-3)[Gal(b1-4)]GlcNAc(b1-3)Gal(b1-4)[Fuc(a1-3)]GlcNAc
# Method in brief: as §1
# [8] = target: Fuc(a1-3)[Gal(b1-4)]GlcNAc(b1-3)Gal(b1-4)[Fuc(a1-3)]GlcNAc(b1-3)Gal(b1-4)[Fuc(a1-3)]GlcNAc
# Method in brief: as §1
# [9] = target: Fuc(a1-3)[Gal(b1-4)]GlcNAc(b1-3)GalNAc
# Method in brief: as §1
# [10] = target: Fuc(a1-3)[Gal(b1-4)]GlcNAc(b1-6)GalNAc
# Method in brief: as §1
# [11] = target: Fuc(a1-3)[Gal(b1-4)]GlcNAc(b1-6)[Gal(b1-3)GlcNAc(b1-3)]Gal(b1-4)Glc
# Method in brief: as §1
# [12] = target: Fuc(a1-3)[Gal(b1-4)]GlcNAc6S
# Method in brief: as §1
# [13] = target: Fuc(a1-3)[Gal3S(b1-4)]Glc
# Method in brief: as §1
# [14] = target: Fuc(a1-3)[Gal3S(b1-4)]GlcNAc
# Method in brief: as §1
# [15] = target: Fuc(a1-3)[Gal3S(b1-4)]GlcNAc6S
# Method in brief: as §1
# [16] = target: Fuc(a1-3)[GalNAc(b1-4)]GlcNAc
# Method in brief: as §1
# [17] = target: Fuc(a1-3)[GalNAc(b1-4)]GlcNAc6S
# Method in brief: as §1
# Fuc(a1-4)GlcNAc = target: Fuc(a1-4)GlcNAc
# Method in brief: as §1
# Fuc(b1-3)GlcNAc = target: Fuc(b1-3)GlcNAc
# Method in brief: as §1
# Gal(a1-2)Gal = target: Gal(a1-2)Gal
# Method in brief: as §1
# Gal(a1-3)Gal = target: Gal(a1-3)Gal
# Method in brief: as §1
# Gal(a1-3)Gal(b1-3)GlcNAc = target: Gal(a1-3)Gal(b1-3)GlcNAc
# Method in brief: as §1
# [18] = target: Gal(a1-3)Gal(b1-3)GlcNAc(b1-2)Man
# Method in brief: as §1
# [19] = target: Gal(a1-3)Gal(b1-3)GlcNAc(b1-2)Man(a1-3)[Gal(a1-3)Gal(b1-3)GlcNAc(b1-2)Man(a1-6)]Man(b1-4)GlcNAc(b1-4)GlcNAc
# Method in brief: as §1
# [20] = target: Gal(a1-3)Gal(b1-3)GlcNAc(b1-3)GalNAc
# Method in brief: as §1
# [21] = target: Gal(a1-3)Gal(b1-3)GlcNAc(b1-6)GalNAc
# Method in brief: as §1
# [22] = target: Gal(a1-3)Gal(b1-3)[Fuc(a1-4)]GlcNAc(b1-2)Man(a1-3)[Gal(a1-3)Gal(b1-3)[Fuc(a1-4)]GlcNAc(b1-2)Man(a1-6)]Man(b1-4)GlcNAc(b1-4)GlcNAc
# Method in brief: as §1
# Gal(a1-3)Gal(b1-4)Glc = target: Gal(a1-3)Gal(b1-4)Glc
# Method in brief: as §1
# Gal(a1-3)Gal(b1-4)GlcNAc = target: Gal(a1-3)Gal(b1-4)GlcNAc
# Method in brief: as §1
# [23] = target: Gal(a1-3)Gal(b1-4)GlcNAc(b1-2)Man
# Method in brief: as §1
# [24] = target: Gal(a1-3)Gal(b1-4)GlcNAc(b1-2)Man(a1-3)[Gal(a1-3)Gal(b1-4)GlcNAc(b1-2)Man(a1-6)]Man(b1-4)GlcNAc(b1-4)GlcNAc
# Method in brief: as §1
# [25] = target: Gal(a1-3)Gal(b1-4)GlcNAc(b1-3)GalNAc
# Method in brief: as §1
# [26] = target: Gal(a1-3)Gal(b1-4)GlcNAc(b1-6)GalNAc
# Method in brief: as §1
# [27] = target: Gal(a1-3)Gal(b1-4)[Fuc(a1-3)]GlcNAc
# Method in brief: as §1
# [28] = target: Gal(a1-3)Gal(b1-4)[Fuc(a1-3)]GlcNAc(b1-2)Man(a1-3)[Gal(a1-3)Gal(b1-4)[Fuc(a1-3)]GlcNAc(b1-2)Man(a1-6)]Man(b1-4)GlcNAc(b1-4)GlcNAc
# Method in brief: as §1
# Gal(a1-3)GalNAc = target: Gal(a1-3)GalNAc
# Method in brief: as §1
binder,measurement,setting,value
B1,glycan array binding signal (z-score),Fuc(a1-3)GlcNAc,-0.222
same,glycan array binding signal (z-score),[1],0.367
same,glycan array binding signal (z-score),[2],-0.206
same,glycan array binding signal (z-score),[3],-0.256
same,glycan array binding signal (z-score),[4],-0.425
same,glycan array binding signal (z-score),[5],-0.541
same,glycan array binding signal (z-score),[6],-0.182
same,glycan array binding signal (z-score),[7],-0.198
same,glycan array binding signal (z-score),[8],-0.455
same,glycan array binding signal (z-score),[9],0.286
same,glycan array binding signal (z-score),[10],-0.27
same,glycan array binding signal (z-score),[11],-0.182
same,glycan array binding signal (z-score),[12],1.13
same,glycan array binding signal (z-score),[13],-0.49
same,glycan array binding signal (z-score),[14],-0.333
same,glycan array binding signal (z-score),[15],0.01
same,glycan array binding signal (z-score),[16],0.502
same,glycan array binding signal (z-score),[17],-0.075
same,glycan array binding signal (z-score),Fuc(a1-4)GlcNAc,0.148
same,glycan array binding signal (z-score),Fuc(b1-3)GlcNAc,-0.326
same,glycan array binding signal (z-score),Gal(a1-2)Gal,-0.412
same,glycan array binding signal (z-score),Gal(a1-3)Gal,-0.052
same,glycan array binding signal (z-score),Gal(a1-3)Gal(b1-3)GlcNAc,-0.068
same,glycan array binding signal (z-score),[18],-0.643
same,glycan array binding signal (z-score),[19],0.258
same,glycan array binding signal (z-score),[20],-0.446
same,glycan array binding signal (z-score),[21],-0.119
same,glycan array binding signal (z-score),[22],-0.065
same,glycan array binding signal (z-score),Gal(a1-3)Gal(b1-4)Glc,-0.315
same,glycan array binding signal (z-score),Gal(a1-3)Gal(b1-4)GlcNAc,-0.686
same,glycan array binding signal (z-score),[23],-0.427
same,glycan array binding signal (z-score),[24],0.763
same,glycan array binding signal (z-score),[25],-0.226
same,glycan array binding signal (z-score),[26],0.237
same,glycan array binding signal (z-score),[27],-0.319
same,glycan array binding signal (z-score),[28],6.91
same,glycan array binding signal (z-score),Gal(a1-3)GalNAc,-0.476
